# Source: PubChem BioAssay AID624296 (National Center for Advancing Translational Sciences (NCATS), 2012)
# The whole screen tested about 350,000 compounds, of which about 9,900 (2.8%) were called active. This list was built around the results that the source calls inconclusive (neither active nor inactive); the mix of calls is not that of the screen. The call rests on the fitted dose curve; in most records, active means well fitted activation curve with a large enough effect; inconclusive means small, poorly fitted or top-dose-only effect; inactive means no such curve, though single readings can be large or run the other way. No potency is given beside an inconclusive call; the fits are too rough.
# Test: A quantitative high throughput screen for small molecules that induce DNA re-replication in MCF 10a normal breast cells. Further: nearly all actives have a fitted effect of over 50% in size.
# Conditions: MCF 10A DNA re-replication, Hoechst nuclear intensity, 48 h; series mostly up to 46.1 µM
# Potency means the concentration at half of the fitted maximal effect; tags describe the fitted curve by direction and shape.
row,SMILES,Potency
1,Fc1ccccc1CCNc1nnnn1-c1ccccc1,"inconclusive [activator, single point]"
2,Nc1cccc2c1C(=O)N(C(=O)/C=C/c1cccc(Br)c1)C2=O,active: 20.6 µM
3,O=C(CN1C(=O)CSc2ccc(S(=O)(=O)N3CCOCC3)cc21)NCCCN1CCc2ccccc2C1,inactive
4,Nc1nonc1C(=O)NCCNC(=O)c1ccc(Cl)cc1,inactive
5,Cc1ccc(C(=O)N/N=c2\sc3ccccc3n2C)cc1,"inconclusive [activator, partial curve, poor fit]"
6,CCOC(=O)C1(Cc2cccc(Cl)c2)CCCN(C(=O)CCOC)C1 (stereo not given),"inconclusive [activator, single point]"
7,CNC(=O)c1[nH]cnc1C(=O)N[C@@H](C)C(=O)OCc1ccccc1,"inconclusive [activator, single point]"
8,Cc1cccc(N2CCN(C(=O)COc3ccc4c(c3)CCC4)CC2C)c1 (stereo not given),"inconclusive [activator, partial curve]"
9,COc1c(F)c(F)c(C(=O)O)c(Nc2ccc(C)cc2)c1F,"inconclusive [activator, partial curve, poor fit]"
10,CCN(CC)CCNC(=O)/C(=C/c1cn(CC)c2ccccc12)NC(=O)c1cc(OC)c(OC)c(OC)c1,active: 0.651 µM
11,CC(C)OCCCn1c(=NC(=O)c2cccs2)c(C#N)cc2c(=O)n3ccccc3nc21,active: 11.6 µM
12,Cc1ccc(S(=O)(=O)N2CCCCC2)cc1C(=O)NCCC1=CCCCC1,"inconclusive [activator, partial curve, poor fit]"
13,CCOc1ccc(Br)cc1C(=S)N1CCCC1,inactive
14,COc1cc(OC)cc(-c2c(C#Cc3ccsc3)c3cc(-c4ccc(OC)c(F)c4)ccc3n2C)c1,inactive
15,CN(CCCNC(=O)C1CCC(=O)N1Cc1ccccc1Cl)c1ccccc1 (stereo not given),inactive
16,Cc1ccc(S(=O)(=O)Nc2ccc(N3CCOCC3)cc2)cc1[N+](=O)[O-],"inconclusive [activator, single point]"
17,CN(C)CCN1CC(O)=C(c2nc3ccccc3s2)C1=N,active: 18.4 µM
18,Cc1c(C(=O)N2CCN(c3ccccc3)CC2)oc2c(F)cccc12,"inconclusive [activator, single point]"
19,O=[N+]([O-])c1cccc(COc2cccc(CN3CCCCC3)c2)c1,inactive
20,COc1ccc(S(=O)(=O)N2CCN(Cc3ccc(Cl)cc3)CC2)cc1,"inconclusive [activator, single point]"
21,Cc1ccc(-c2nnn(CCC(=O)Nc3ccc4c(c3)OCO4)n2)cc1,"inconclusive [activator, single point]"
22,O=C(CCN1C(=O)/C(=C/c2ccc(F)cc2)SC1=S)N[C@@H](CO)Cc1ccccc1,inactive
23,O=C(/C=C/c1cccnc1)/C=C/c1cccnc1,"inconclusive [activator, partial curve, poor fit]"
24,COC(=O)c1cc(-c2ccc3c(c2)OCO3)nc2ccccc12,"inconclusive [activator, single point]"

row,SMILES,Potency
1,COc1ccccc1C(=O)Nc1ccc2c3c(cccc13)CC2,"inconclusive [activator, partial curve, poor fit]"
2,COc1ccc(/C=C2\SC(N3CCc4ccccc4C3)=NC2=O)cc1,"inconclusive [activator, partial curve, poor fit]"
3,CCCN(CCC)c1nc(N)c(C#N)c(CC#N)c1C#N,active: 6.51 µM
4,CC(=O)NC(CCC(=O)O)C(=O)O (stereo not given),"inconclusive [activator, full curve, poor fit]"
5,CCC(Sc1nc2ccccc2s1)C(=O)Nc1nnc(C)s1 (stereo not given),"inconclusive [activator, partial curve, poor fit]"
6,CCOC(=O)c1c(NC(=O)COC(=O)Cn2c(C)nc3ccccc32)sc2c1CCCC2,inactive
7,CCCCNC(=O)CSc1nc2n[nH]c(C)c2c(=N)n1-c1cccc(Cl)c1C,"inconclusive [activator, partial curve, poor fit]"
8,CC(=O)Cc1nsc(NC(=O)c2oc(-c3ccccc3Cl)cc2C)n1,"inconclusive [activator, single point]"
9,CCn1c(SCC(=O)c2ccccc2)nnc1-c1cc2cc(Br)ccc2o1,"inconclusive [activator, partial curve, poor fit]"
10,Cc1cc(OCC(=O)Nc2ccc(F)c(F)c2)nc(C(C)C)n1,"inconclusive [activator, single point]"
11,CCOC(=O)N=S(=O)(Oc1ccc([N+](=O)[O-])cc1)c1ccc(Cl)cc1 (stereo not given),"inconclusive [activator, partial curve]"
12,CCOC(=O)c1c(NC(=O)CN2C(=O)NC(C)(c3ccc(OC(F)F)cc3)C2=O)sc(C)c1C (stereo not given),"inconclusive [activator, single point]"
13,Nc1ccc2c(c1)C(O)c1cccc(C(=O)O)c1-2 (stereo not given),inactive
14,CCCCCc1cc(=O)oc2c(C(CCN3CCCC3)c3cc(OC)c(OC)c(OC)c3)c(OC)cc(OC)c12 (stereo not given),"inconclusive [activator, single point]"
15,COCCNC(=O)C(c1ccc(C)o1)N(CCOC)C(=O)Cn1nnc2ccccc21 (stereo not given),inactive
16,CC(C)(C)NS(=O)(=O)c1ccc(Oc2ncc(C(F)(F)F)cc2Cl)cc1,"inconclusive [activator, partial curve, poor fit]"
17,CCCc1cc2c(OC(=O)CC)c(-c3ccc(C(=O)OCC)o3)c(=O)oc2cc1OC,active: 20.6 µM
18,O=S1(=O)CC/C(=N\Nc2ccccc2)c2ccsc21,"inconclusive [activator, single point]"
19,CSc1nnc2c3ccccc3n(CCc3ccccc3)c2n1,"inconclusive [activator, full curve]"
20,Cc1ccc(NC(=O)C2CCN(S(=O)(=O)c3ccc4c(c3)NC(=O)C(C)S4)CC2)c(Cl)c1 (stereo not given),inactive
21,COCc1ccc(C(=O)N2CCCC(CCC(=O)NCc3ccccc3F)C2)o1 (stereo not given),active: 13 µM
22,Cc1cc(C(F)(F)F)cc(NNC(=O)NC(=O)c2ccc(Cl)cc2)n1,"inconclusive [activator, partial curve, poor fit]"
23,CCN(CC)c1ccc(/C=N/NC(=O)CNC(=O)C2COc3ccccc3O2)c(O)c1 (stereo not given),active: 6.51 µM
24,O=C(O)c1sc2cc(C(F)(F)F)cnc2c1-c1ccccc1,inactive

row,SMILES,Potency
1,CCc1nc(SCc2ccc(C(=O)OC)o2)n[nH]1,"inconclusive [activator, single point]"
2,C#CC(CO)N(CCN(Cc1ccccc1)C(C#C)CO)Cc1ccccc1 (stereo not given),inactive
3,COc1cc([N+](=O)[O-])ccc1NC(=O)CC1SC(=Nc2ccc(F)cc2)N(CCC2=CCCCC2)C1=O (stereo not given),"inconclusive [activator, partial curve]"
4,Cc1ccc(C(=O)Oc2ccc([N+](=O)[O-])cc2)cc1S(=O)(=O)N1CCCCCC1,"inconclusive [activator, single point]"
5,CCOC(=O)C1=C(C)N(c2ccc(C)c(C)c2)C(=O)/C1=C\c1ccco1,"inconclusive [activator, single point]"
6,CC(C)n1c(SCC(=O)Nc2nncs2)nnc1-c1ccco1,"inconclusive [activator, single point]"
7,Cc1cc(C)c(OCCCNCc2ccccc2)c(Br)c1,"inconclusive [activator, single point]"
8,CN1CCN(c2ccc(Cl)cc2NC(=O)c2cccc(S(=O)(=O)N(C)C)c2)CC1,inactive
9,CSc1ccc(-c2nc(CN(C)C3CCOC3)c(C)o2)cc1 (stereo not given),"inconclusive [activator, single point]"
10,Fc1ccc(-c2nnc(N3CCOCC3)c3ccccc23)cc1F,"inconclusive [activator, single point]"
11,Cc1cccc(NC2=C/C(=N/S(=O)(=O)c3cccs3)c3ccccc3C2=O)c1,active: 2.91 µM
12,CCc1c(C)sc2nc3c(C(=O)N4CCOCC4)cc(C(=O)c4cc(F)ccc4O)cn3c(=O)c12,"inconclusive [activator, partial curve, poor fit]"
13,O=C(CSc1ccccn1)Nc1ccc(F)c([N+](=O)[O-])c1,inactive
14,CN(C)CCNc1nc2sc3c(c2c(=O)n1Cc1ccccc1)CCCCC3,active: 18.4 µM
15,CCCn1nc(NC(=O)c2ccncc2)c2cc3ccccc3nc21,inactive
16,O=S(=O)(Nc1ccc2c(c1)OCO2)c1ccccc1,inactive
17,O=C(CNC(=O)c1ccc(Br)cc1)N/N=C/c1ccc[nH]1,"inconclusive [activator, partial curve, poor fit]"
18,Cc1nonc1OCCN1CCN(c2ccccc2[N+](=O)[O-])CC1,"inconclusive [activator, full curve, poor fit]"
19,CC(C)CNC(=S)N1CCC(c2nc(-c3ccc(F)cc3)no2)CC1,"inconclusive [activator, partial curve, poor fit]"
20,C[C@H](CO)N1C[C@H](C)[C@@H](CN(C)S(=O)(=O)c2cccs2)Oc2c(NC(=O)CCC(F)(F)F)cccc2C1=O,inactive
21,CC(C)(C)OC(=O)NCCC(=O)N/N=C/c1cccc2nccnc12,inactive
22,O=C(CSc1nnc(-c2c[nH]c3ccccc23)o1)c1ccccc1,"inconclusive [activator, full curve]"
